Among all 48,000 compounds or so, about 550 (1.1%) were called active. Another 4% or so got no clear call; they are omitted. Rule as the data show it: active = potency below about 15 µM; inconclusive = mostly about 16 µM to 33 µM; inactive = weaker than that. The list shows a part of the results.
Potency is read from the fitted curve at half-maximal effect.

The target of this assay is Lysosomal acid glucosylceramidase (Homo sapiens) (UniProt P04062). The assay is described as follows: Glucocerebrosidase.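 Also: the screen sought inhibitors.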 Particulars: purified enzyme, resorufin glucoside fluorescence (screen aimed at inhibitors), 20 min. The method, boiled down: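 Compounds titrated against 0.2 nM normal enzyme, 30 uM resorufin beta-D-glucopyranoside substrate, citrate/phosphate buffer with taurocholate and tween-20, pH 5.9. Reaction ran 20 min at room temperature; fluorescence (Ex 548/Em 600) gave AC50.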
UniProt P04062, sequence (P04062 whole entry, looked up): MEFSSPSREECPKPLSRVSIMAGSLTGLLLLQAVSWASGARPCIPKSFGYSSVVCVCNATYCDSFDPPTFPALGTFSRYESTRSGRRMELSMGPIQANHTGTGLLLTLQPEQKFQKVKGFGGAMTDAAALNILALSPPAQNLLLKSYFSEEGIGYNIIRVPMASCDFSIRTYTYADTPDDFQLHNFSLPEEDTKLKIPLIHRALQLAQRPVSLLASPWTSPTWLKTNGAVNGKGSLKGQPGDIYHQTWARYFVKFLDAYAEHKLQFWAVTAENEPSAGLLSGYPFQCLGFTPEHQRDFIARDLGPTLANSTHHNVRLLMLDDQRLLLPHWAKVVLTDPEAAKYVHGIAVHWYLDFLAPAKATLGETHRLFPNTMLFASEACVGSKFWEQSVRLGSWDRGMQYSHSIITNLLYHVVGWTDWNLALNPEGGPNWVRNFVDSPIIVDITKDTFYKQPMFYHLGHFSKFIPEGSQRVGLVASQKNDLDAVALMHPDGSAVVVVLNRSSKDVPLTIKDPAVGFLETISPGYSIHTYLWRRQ
`O=C(O)c1nc2ccccc2nc1C(=O)O`: the Potency is inactive: > 76.9 µM.
To `CS(=O)(=O)N(CC(=O)N1CCCCCC1)c1ccc2c(c1)OCCO2` belongs inactive: > 76.9 µM; to `O=C(O)c1ccccc1SCc1ccc2c(c1)OCO2`, inactive: > 76.9 µM; to `O=S(=O)(c1cccc(Cl)c1Cl)N1CCCCC1`, inactive: > 76.9 µM.
To `Cc1nn(C)c(C)c1CNC(=O)c1cnn2c1NC(c1ccccc1)CC2C(F)(F)F` (stereo not given) belongs inactive: > 76.9 µM; to `CCCC(C(=O)NCC1CCCO1)N(Cc1ccco1)C(=O)CNS(=O)(=O)c1ccc(F)cc1` (stereo not given), inactive: > 76.9 µM; to `CN(C)CCC(=O)c1ccc2c(c1)OCO2`, inactive: > 76.9 µM.
To `CCN1CCN(CCC(=O)Nc2ccccc2OC)CC1` belongs inactive: > 76.9 µM; to `Cc1coc2cc3oc(=O)c4c(c3cc12)CCC4`, inactive: > 76.9 µM; to `CCOc1ccc(NC(=O)C(C)O)c(NS(=O)(=O)c2ccc(CCNC(C)=O)cc2)c1` (stereo not given), inactive: > 76.9 µM.
Take `c1ccc2c(c1)nc(N1CCN(C3CCCCC3)CC1)c1nnnn12`: the Potency is inactive: > 76.9 µM.
On to `CC(C)(C)c1csc(NC(=O)CSc2nc3ccccc3c(=O)[nH]2)n1`, for which the Potency was inactive: > 76.9 µM.
For `CSCC[C@H](NC(=O)CCn1nnc2ccccc2c1=O)C(=O)O`, the Potency is inactive: > 76.9 µM.
In the case of `CCCCN(CC)CCNS(=O)(=O)c1ccc2c(c1)oc(=O)n2C`, the Potency was inactive: > 76.9 µM.
The value for `CCN(CCO)c1ccc(-n2c(N)c(C(=O)OC)c3nc4ccccc4nc32)cc1` was inactive: > 76.9 µM.
The value for `CCCCOc1ccc(C(=O)N2CCCCCC2)cc1` was inactive: > 76.9 µM; that for `CC(=O)Nc1ccc(NC(=O)Cn2cnc3c(cnn3C(C)(C)C)c2=O)cc1` was inactive: > 76.9 µM.
On to `COc1ccc(OC)c(NC(=O)C(CC(=O)O)NCc2ccco2)c1` (stereo not given), for which the Potency was inactive: > 76.9 µM.
To `C=C(C)Cn1c(CCNC(=O)C(C)C)nc2ccccc21` belongs inactive: > 76.9 µM.
The value for `CN1CCN(C(=O)Nc2cccc3ccccc23)CC1` was inactive: > 76.9 µM; that for `N#CC1=C(N)Oc2nc(-c3ccccc3)[nH]c2C1c1cccnc1` (stereo not given) was inactive: > 76.9 µM.
To `CCOC(=O)N1CCN(C(=O)CSc2nnc(-c3cc(OC)ccc3OC)o2)CC1` belongs inactive: > 76.9 µM; to `Cc1ccc(NS(=O)(=O)c2cc(C(=O)N3CCOCC3)ccc2C)cc1`, inactive: > 76.9 µM.
On to `O=C(CSc1nnc(-c2cccs2)n1-c1ccccc1)c1ccc2c(c1)OCCO2`, for which the Potency is inactive: > 76.9 µM.
The value for `CCOc1ccc(Cc2nnc(SCC(=O)c3ccc(OC)cc3)o2)cc1` was inactive: > 76.9 µM; that for `CCc1nc2ccccc2n(CC)c1=O` was inactive: > 76.9 µM; that for `Cc1ccccc1N1C(=O)[C@@H]2Cc3ccccc3CN2C1=O` was inactive: > 76.9 µM.
Take `Cc1oc(-c2ccccc2)[n+]([O-])c1C`: the Potency is inactive: > 76.9 µM.
Turning to `COCCn1cc(C(=O)N2CCCC(C)C2)c2c3ccccc3n(C)c2c1=O` (stereo not given), the Potency was inactive: > 76.9 µM.
To `CC(C(=O)Nc1ccc(C(=O)O)cc1)N1C(=O)c2ccccc2C1=O` (stereo not given) belongs inactive: > 76.9 µM; to `Cc1cc(NC(=O)CCC(=O)N(Cc2cccs2)C(C(=O)NC2CCCC2)c2ccncc2)no1` (stereo not given), inactive: > 76.9 µM.
For the compound `COc1cc(OC)c(-c2nn3c(-c4cccnc4)nnc3s2)cc1OC`, the Potency was inactive: > 76.9 µM.
To `CCOC(=O)N1CCC(NC(=O)CCc2c(C)nc3c(c(C)nn3C(C)(C)C)c2C)CC1` belongs inactive: > 76.9 µM; to `Cc1c(NC(=O)CCc2ccc(S(=O)(=O)N3CCOCC3)cc2)c(=O)n(-c2ccccc2)n1C`, inactive: > 76.9 µM.
To `Cc1noc(C)c1C(=O)Nc1ccccc1-c1ccccc1` belongs inactive: > 76.9 µM.
To `O=C(c1cccs1)N(CC1CCCO1)c1nc(-c2ccccc2)cs1` (stereo not given) belongs inactive: > 76.9 µM; to `COc1cccc(C2C=C(c3ccc(OC)cc3OC)Nc3nnnn32)c1` (stereo not given), inactive: > 76.9 µM.
Regarding `CCOc1ccc(-c2cc(C(=O)N3CCN(C)CC3)c3ccccc3n2)cc1`, the Potency is inactive: > 76.9 µM.
Take `Cc1ccccc1OCC(O)Cn1c(NCc2ccco2)nc2c1c(=O)[nH]c(=O)n2C` (stereo not given): the Potency was inactive: > 76.9 µM.
The value for `COc1ccc(C2C(C(C)=O)=C(O)C(=O)N2CCO)c(OC)c1` (stereo not given) was inactive: > 76.9 µM; that for `CCCn1nnc(NC(=O)Cc2ccc(Cl)cc2)n1` was inactive: > 76.9 µM; that for `c1ccc(-c2nn3c(-c4ccncc4)nnc3s2)nc1` was inactive: > 76.9 µM.
Consider `O=C(NCc1ccccn1)NC12CC3CC(CC(C3)C1)C2`, for which the Potency was inactive: > 76.9 µM.
The value for `O=C1OCCC1Sc1nnc(-c2cccs2)n1Cc1ccccc1` (stereo not given) was inactive: > 76.9 µM; that for `COc1ccc(CCN2CNc3c(c(=O)n(C)c(=O)n3C)C2)cc1OC` was inactive: > 76.9 µM.
With `CCC(=O)N1CCN(C(C)=O)C1c1ccccc1` (stereo not given), the Potency is inactive: > 76.9 µM.
The value for `CCCn1c(CNC(=O)Cc2ccccc2)nc2ccccc21` was inactive: > 76.9 µM; that for `CCOC(=O)c1nnn(-c2nc(OC)nc(N(C)C)n2)c1-c1ccccc1` was inactive: > 76.9 µM.
The value for `CCN1CCN(S(=O)(=O)Cc2ccccc2)CC1` was inactive: > 76.9 µM; that for `COc1cccc(C(=O)N(Cc2ccc(N(C)C)cc2)C2CCS(=O)(=O)C2)c1` (stereo not given) was inactive: > 76.9 µM; that for `Cn1c(=O)[nH]c(=O)c2c1nc(CN(Cc1ccccc1)Cc1ccccc1)n2CCN1CCOCC1` was inactive: > 76.9 µM.
The value for `c1coc(-c2ncc[nH]2)c1` was inactive: > 76.9 µM.
Turning to `COc1cccc(OC)c1C(=O)Nc1ccccc1N1CCCC1`, the Potency was inactive: > 76.9 µM.
The value for `CCN(CC)CCN1C(=O)C(=O)/C(=C(/O)c2ccc(OC)c(OC)c2)C1c1ccccn1` (stereo not given) was inactive: > 76.9 µM; that for `Cc1cccc(-c2nnc3sc(-c4ccccc4C)nn23)c1` was inactive: > 76.9 µM.
To `CC(=O)C(C(C)=O)C(NC(=O)c1cccnc1)(C(F)(F)F)C(F)(F)F` belongs inactive: > 76.9 µM.
Consider `O=C(c1ccco1)N1CCN(S(=O)(=O)c2cccc3nsnc23)CC1`, for which the Potency is inactive: > 76.9 µM.
The value for `CCn1c(SCC(=O)Nc2ccc3c(c2)OCO3)nnc1-c1cnccn1` was inactive: > 76.9 µM.
Turning to `CC(C)OC(=O)C1C(=O)CC(C)(O)C(C(=O)OC(C)C)C1c1cccc(O)c1` (stereo not given), the Potency is inactive: > 76.9 µM.
With `Fc1ccc(Cn2nnnc2CN2CCc3ccccc3C2)cc1`, the Potency is inactive: > 76.9 µM.
Consider `CCS(=O)(=O)N1CCCC(C(=O)NCCCOC(C)C)C1` (stereo not given), for which the Potency is inactive: > 76.9 µM.
In the case of `COc1cc(-c2nnc(CSc3nnc4nc(C)cc(C)n34)o2)cc(OC)c1OC`, the Potency is inactive: > 76.9 µM.
The value for `CC(=O)Nc1ccc(NS(=O)(=O)c2ccc(Cl)c(C(=O)O)c2)cc1` was inactive: > 76.9 µM.
The value for `N#CC1=C(N)Oc2n[nH]c(-c3cccs3)c2C1c1ccco1` (stereo not given) was inactive: > 76.9 µM.
On to `COc1ccc(S(=O)(=O)N(C)CC(=O)N2CCOCC2)cc1Cl`, for which the Potency is inactive: > 76.9 µM.
The value for `O=C(NC1CCCCC1)N1CCC(c2nc3ccccc3[nH]2)CC1` was inactive: > 76.9 µM; that for `CCCSc1nc2c(c(=O)n(C)c(=O)n2C)n1Cc1ccc(C)cc1` was inactive: > 76.9 µM; that for `CN1CCN(C(=O)c2cnn3c(C(F)F)cc(C4CC4)nc23)CC1` was inactive: > 76.9 µM.
To `Cc1cnc(C(=O)OCC(=O)c2csc(N3CCCCC3)n2)cn1` belongs inactive: > 76.9 µM; to `CCC(=O)Nc1ccc(-c2nn3c(C)nnc3s2)cc1C`, inactive: > 76.9 µM.
To `CCC(C)(C)n1nnnc1C(c1cccs1)N1CCN(Cc2ccccc2)CC1` (stereo not given) belongs inactive: > 76.9 µM; to `CCC(CC)C(=O)Nc1cccc(C(=O)N2CCCCCC2)c1`, inactive: > 76.9 µM.
In the case of `COc1ccc(CNC(=O)COC(=O)c2n[nH]c3ccccc23)cc1OC`, the Potency was inactive: > 76.9 µM.
To `Cc1cc(C)c(NC2=CC(=O)CC(C)(C)C2)c(C#N)c1` belongs inactive: > 76.9 µM; to `COc1ccc(CCNC(=O)Cn2cnc3c2c(=O)n(C)c(=O)n3C)cc1OC`, inactive: > 76.9 µM; to `CN1C(=O)c2ccc(S(=O)(=O)c3ccc(C(=O)O)cc3)cc2C1=O`, inactive: > 76.9 µM.
The value for `Nc1nnnn1/N=C/c1ccccc1C(F)(F)F` was inactive: > 76.9 µM.
The value for `CC1Cc2ccccc2N1C(=O)CSc1nc2cc3c(cc2cc1C#N)OCO3` (stereo not given) was inactive: > 76.9 µM; that for `CCOc1ccc(-n2c(SCC(=O)NCc3ccco3)nc3c(c2=O)SCC3)cc1` was inactive: > 76.9 µM.
As for `CCOC(=O)/C=C1\SCC(=O)N1CC(O)CN1C(=O)CS/C1=C\C(=O)OCC`, the Potency was inactive: > 76.9 µM.
The value for `O=c1nc2scc(-c3ccccc3)n2c2ccccc12` was inactive: > 76.9 µM.
The value for `CCOc1ccccc1N1C(=O)CC(Sc2ncccc2C(=O)O)C1=O` (stereo not given) was inactive: > 76.9 µM; that for `CCCCCCC(C)n1[nH]c(=O)c2c(C)cc(=O)[nH]c21` (stereo not given) was inactive: > 76.9 µM.
Take `CCCn1c(SCC(=O)NCCc2ccccc2)nnc1-c1ccccn1`: the Potency is inactive: > 76.9 µM.
To `FC(F)(F)c1cnc2c(c1)Nc1ccccc1S2` belongs inactive: > 76.9 µM; to `CCOC(=O)C1=C(C)NC(=O)NC1c1c(OCC(=O)N2CCCCC2)ccc2ccccc12` (stereo not given), inactive: > 76.9 µM; to `CCC(=O)N1CC2(C)CN(C(=O)CC)CC(C)(C1)C2`, inactive: > 76.9 µM.
To `COc1ccc(Cn2nnnc2C(C(C)C)N(Cc2ccco2)Cc2cccs2)cc1` (stereo not given) belongs inactive: > 76.9 µM; to `Cc1ccc2cc3c(NC(=O)C(C)C)nn(C)c3nc2c1`, inactive: > 76.9 µM.
The value for `Cc1ccc(CN2C(=O)CCC2C(=O)NCC2CCCO2)cc1` (stereo not given) was inactive: > 76.9 µM.

Values taken from PubChem BioAssay AID360 (National Center for Advancing Translational Sciences (NCATS), 2006).
